Experiment [1] deals with T1, PIN2/TERF1-interacting telomerase inhibitor 1 (PinX1), purified wild type (UniProt Q96BK5).
T1 sequence: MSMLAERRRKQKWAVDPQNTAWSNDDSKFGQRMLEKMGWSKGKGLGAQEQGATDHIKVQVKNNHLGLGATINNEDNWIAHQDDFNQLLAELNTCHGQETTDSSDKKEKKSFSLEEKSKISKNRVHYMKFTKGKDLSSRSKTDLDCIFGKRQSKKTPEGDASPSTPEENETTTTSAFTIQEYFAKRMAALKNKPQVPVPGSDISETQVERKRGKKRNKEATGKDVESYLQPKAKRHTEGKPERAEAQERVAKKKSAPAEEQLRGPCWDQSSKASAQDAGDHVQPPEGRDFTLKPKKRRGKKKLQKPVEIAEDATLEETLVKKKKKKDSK
The experiment can be described thus: pull-down; purified PinX1 (3 mg) immobilised on a 1 ml HiTrap NHS-activated column; 1 mg NPM or NPM variant in PBS, 30 min at room temperature; washed with PBS, eluted with PBS with 1.5 M NaCl; SDS-PAGE; both purified.

Sequences of proteins named here, by UniProt entry; tags and fusion partners are left off. A change or cut given only in a name is not applied to a line headed by its entry. Residues count along the entry.
UniProt P06748: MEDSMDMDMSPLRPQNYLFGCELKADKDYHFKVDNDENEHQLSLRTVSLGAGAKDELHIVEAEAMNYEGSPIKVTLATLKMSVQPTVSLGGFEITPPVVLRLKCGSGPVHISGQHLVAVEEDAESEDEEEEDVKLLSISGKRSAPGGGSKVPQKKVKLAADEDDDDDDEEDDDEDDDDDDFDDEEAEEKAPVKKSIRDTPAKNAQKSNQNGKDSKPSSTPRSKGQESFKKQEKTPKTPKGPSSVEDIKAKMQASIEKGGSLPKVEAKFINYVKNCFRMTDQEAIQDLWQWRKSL
myc-NPM aa83–294: residues 83-294 of P06748
UniProt O14746: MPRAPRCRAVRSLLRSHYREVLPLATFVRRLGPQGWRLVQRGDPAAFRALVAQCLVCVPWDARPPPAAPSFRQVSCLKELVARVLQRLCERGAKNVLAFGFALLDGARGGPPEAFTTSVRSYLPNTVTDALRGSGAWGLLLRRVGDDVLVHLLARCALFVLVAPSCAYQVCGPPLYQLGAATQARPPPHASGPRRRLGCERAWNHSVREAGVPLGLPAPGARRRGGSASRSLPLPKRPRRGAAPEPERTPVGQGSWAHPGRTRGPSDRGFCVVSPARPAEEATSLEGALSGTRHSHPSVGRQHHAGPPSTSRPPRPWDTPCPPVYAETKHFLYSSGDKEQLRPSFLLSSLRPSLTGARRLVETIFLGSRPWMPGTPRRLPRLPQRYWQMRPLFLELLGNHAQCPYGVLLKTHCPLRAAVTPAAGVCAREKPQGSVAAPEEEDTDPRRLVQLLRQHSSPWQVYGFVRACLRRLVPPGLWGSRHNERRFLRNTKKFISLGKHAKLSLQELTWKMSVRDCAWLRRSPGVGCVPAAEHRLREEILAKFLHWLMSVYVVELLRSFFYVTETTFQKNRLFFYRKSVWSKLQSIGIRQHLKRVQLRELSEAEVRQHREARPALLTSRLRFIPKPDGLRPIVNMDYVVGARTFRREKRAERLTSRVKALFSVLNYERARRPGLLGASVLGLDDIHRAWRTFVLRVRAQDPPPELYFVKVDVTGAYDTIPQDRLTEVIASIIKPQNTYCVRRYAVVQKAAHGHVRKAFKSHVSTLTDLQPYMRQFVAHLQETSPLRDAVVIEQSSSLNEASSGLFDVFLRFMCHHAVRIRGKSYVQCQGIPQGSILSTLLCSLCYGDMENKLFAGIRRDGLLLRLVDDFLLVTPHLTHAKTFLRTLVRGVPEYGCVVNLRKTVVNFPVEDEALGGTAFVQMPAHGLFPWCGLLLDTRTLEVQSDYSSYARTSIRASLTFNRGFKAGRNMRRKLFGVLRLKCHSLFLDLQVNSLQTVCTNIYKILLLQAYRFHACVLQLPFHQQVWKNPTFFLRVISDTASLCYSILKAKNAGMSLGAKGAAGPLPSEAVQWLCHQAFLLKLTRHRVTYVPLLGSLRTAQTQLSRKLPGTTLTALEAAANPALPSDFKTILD
myc-hTERT aa170–546: residues 170-546 of O14746
myc-hTERT aa326–620: residues 326-620 of O14746
myc-hTERT aa523–924: residues 523-924 of O14746

Experiment [2] has as its target T2, endogenous PinX1 (HEK293T) (human (endogenous in HEK293T)) (UniProt Q96BK5).
T2 sequence: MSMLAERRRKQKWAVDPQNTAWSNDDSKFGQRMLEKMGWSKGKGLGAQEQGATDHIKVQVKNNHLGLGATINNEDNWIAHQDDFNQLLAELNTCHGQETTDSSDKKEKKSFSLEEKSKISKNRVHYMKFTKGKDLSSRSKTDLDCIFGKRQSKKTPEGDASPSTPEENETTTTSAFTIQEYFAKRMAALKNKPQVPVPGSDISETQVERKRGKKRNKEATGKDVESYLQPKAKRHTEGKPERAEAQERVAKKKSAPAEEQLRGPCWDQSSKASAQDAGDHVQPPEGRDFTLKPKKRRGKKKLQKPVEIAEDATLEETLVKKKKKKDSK
Kind of experiment: co-IP; endogenous proteins from HEK293T lysate, precipitated with anti-PinX1 or anti-hTERT antibody and protein A beads; western blot.

In another experiment the target is T3, myc-PinX1 (UniProt Q96BK5).
T3 sequence: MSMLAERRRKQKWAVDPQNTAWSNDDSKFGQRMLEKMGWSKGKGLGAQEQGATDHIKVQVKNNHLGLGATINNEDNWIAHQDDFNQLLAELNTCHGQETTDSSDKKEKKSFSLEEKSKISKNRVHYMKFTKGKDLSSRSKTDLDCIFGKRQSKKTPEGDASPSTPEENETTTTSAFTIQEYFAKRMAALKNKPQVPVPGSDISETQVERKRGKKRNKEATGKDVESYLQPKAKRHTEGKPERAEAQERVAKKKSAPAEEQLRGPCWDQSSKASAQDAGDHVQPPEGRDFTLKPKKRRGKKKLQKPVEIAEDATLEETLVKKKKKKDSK
Kind of experiment: co-IP; transfected HEK293T lysates (50 mM Tris pH 7.6, 150 mM NaCl, 1 mM EDTA, 1% Triton X-100), anti-myc antibody 9B11 and protein A beads, 4 °C; western blot; in some panels with overexpression or siRNA of NPM or PinX1.

The next experiment concerns the target T4, myc-PinX1-C (UniProt Q96BK5).
T4 sequence: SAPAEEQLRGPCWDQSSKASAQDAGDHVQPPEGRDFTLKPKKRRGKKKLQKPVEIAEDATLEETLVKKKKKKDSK
The experiment is described as above.

Another experiment has as its target T5, Myc-His-PinX1 (UniProt Q96BK5).
T5 sequence: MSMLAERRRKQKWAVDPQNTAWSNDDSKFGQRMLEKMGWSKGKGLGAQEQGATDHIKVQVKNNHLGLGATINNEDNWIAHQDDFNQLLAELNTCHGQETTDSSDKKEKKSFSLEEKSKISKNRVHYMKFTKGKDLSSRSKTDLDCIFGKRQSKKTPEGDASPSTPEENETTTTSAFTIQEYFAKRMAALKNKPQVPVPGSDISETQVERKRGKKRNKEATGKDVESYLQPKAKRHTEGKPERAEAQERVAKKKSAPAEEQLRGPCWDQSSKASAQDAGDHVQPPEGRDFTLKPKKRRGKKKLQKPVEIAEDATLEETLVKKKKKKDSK
Described as above.

The next experiment concerns the target myc-NPM aa83–294 (UniProt P06748). Described as above.
For experiment [3], the target named is myc-hTERT aa170–546 (human) (UniProt O14746). Described as above.
Another experiment deals with myc-NPM E61A + E63A (UniProt P06748). Described as above.
Another experiment concerns the target Myc-hTERT (human) (UniProt O14746). The experiment is described as above.
The target in another experiment is myc-NPM K73A (UniProt P06748). The experiment is described as above.
Another experiment deals with Myc-NPM (wild type) (UniProt P06748). Described as above.
The next experiment addresses myc-NPM E61A (UniProt P06748). Described as above.
Another experiment deals with myc-NPM E56A (UniProt P06748). Described as above.
A further experiment concerns the target myc-NPM K54A (UniProt P06748). The experiment is described as above.
The next experiment has as its target myc-NPM E63A (UniProt P06748). The description is as above.
Another experiment has as its target myc-NPM D55A (UniProt P06748). Described as above.
Experiment [4] has as its target myc-hTERT aa523–924 (human) (UniProt O14746). The experiment is described as above.
Experiment [5] concerns the target myc-hTERT aa326–620 (human) (UniProt O14746). The experiment is described as above.
Experiment [6] addresses T6, nucleophosmin (NPM), purified wild type (UniProt P06748 1-294).
T6 construct: nucleophosmin, wild type, cloned into pRSETA-HisSumo; HisSumo tag removed by Sumo protease; Truncations end at aa294; also called wild-type NPM; purified NPM; source: E. coli BL21(DE3)-pLysS, purified (HisTrap HP, gel filtration)
Kind of experiment: pull-down; purified NPM (2 mg) immobilised on a 1 ml HiTrap NHS-activated column; 1 mg PinX1 truncation in PBS, 30 min at room temperature; washed with PBS, eluted with PBS with 1.5 M NaCl; SDS-PAGE; both purified.

No constants are given. Whether binding was seen depends on the method and setting. For part of these data: In cells and extracts the contact can be indirect. Some entries that bind do so weakly or less than the wild type. For part of these data: Sequences can lack the tags named with a protein.

Turning to “NPM 193–294 (from UniProt P06748 193-294) (domain or fragment)”, in experiment [1], the binding entry is given as “no binding (tested: 1 mg loaded)”.
With “endogenous nucleophosmin (HEK293T) (from UniProt P06748 1-294)”, the binding entry in experiment [2] is “binds”.
Regarding “endogenous hTERT (HEK293T) (from UniProt O14746 1-1132)”, the binding entry (in the experiment with myc-PinX1; with myc-PinX1-C; in [2]) was “binds” throughout.
As to “NPM 117–294 (from UniProt P06748 117-294) (domain or fragment)”, in [1], the binding result is “no binding (tested: 1 mg loaded)”.
With FLAG-NPM (from UniProt P06748 1-294), the binding entry with Myc-His-PinX1 and with myc-PinX1 was “binds” throughout.
Take “hTERT expressed from pCI-neo hTERT (from UniProt O14746 1-1132)”: the binding entry is reported as “binds” in the experiment with Myc-His-PinX1 and “no binding” in the experiment with myc-NPM aa83–294.

B1: FLAG-PinX1 (protein, UniProt Q96BK5 1-328)
chain: MSMLAERRRKQKWAVDPQNTAWSNDDSKFGQRMLEKMGWSKGKGLGAQEQGATDHIKVQVKNNHLGLGATINNEDNWIAHQDDFNQLLAELNTCHGQETTDSSDKKEKKSFSLEEKSKISKNRVHYMKFTKGKDLSSRSKTDLDCIFGKRQSKKTPEGDASPSTPEENETTTTSAFTIQEYFAKRMAALKNKPQVPVPGSDISETQVERKRGKKRNKEATGKDVESYLQPKAKRHTEGKPERAEAQERVAKKKSAPAEEQLRGPCWDQSSKASAQDAGDHVQPPEGRDFTLKPKKRRGKKKLQKPVEIAEDATLEETLVKKKKKKDSK
Turning to B1, the binding entry (in experiment [3]; in the experiment with myc-NPM E61A + E63A; with Myc-hTERT (human); in the experiment with myc-NPM K73A; in the experiment with Myc-NPM (wild type); with myc-NPM E61A) was “binds” throughout. Also, the binding entry (with myc-NPM E56A; with myc-NPM K54A; with myc-NPM E63A; in the experiment with myc-NPM D55A; in experiment [4]; in [5]) was “binds” in each case.

B2: PinX1-N (aa1–142) (domain or fragment, UniProt Q96BK5 1-142)
chain: MSMLAERRRKQKWAVDPQNTAWSNDDSKFGQRMLEKMGWSKGKGLGAQEQGATDHIKVQVKNNHLGLGATINNEDNWIAHQDDFNQLLAELNTCHGQETTDSSDKKEKKSFSLEEKSKISKNRVHYMKFTKGKDLSSRSKTD
On to B2, for which the binding entry in experiment [6] was “no binding (tested: 1 mg loaded)”.

B3: PinX1-M (aa142–254) (domain or fragment, UniProt Q96BK5 142-254)
chain: DLDCIFGKRQSKKTPEGDASPSTPEENETTTTSAFTIQEYFAKRMAALKNKPQVPVPGSDISETQVERKRGKKRNKEATGKDVESYLQPKAKRHTEGKPERAEAQERVAKKKS
For the molecule B3, in experiment [6], the binding result was “binds weakly”.

(Values after paper PMC5334639, “Nucleophosmin Interacts with PIN2/TERF1-interacting Telomerase Inhibitor 1 (PinX1) and Attenuates the PinX1 Inhibition on Telomerase Activity” (Scientific Reports, 2017).)
